Test results as given in PubChem BioAssay AID1345083 (National Center for Advancing Translational Sciences (NCATS), 2018).
Where “and” joins values, the source holds several entries; their conditions need not be identical. Identical values can stand only once. Among all 94,000 compounds or so, about 6,200 (6.6%) were called active. Inconclusive means that the source gave no clear call. Such entries were picked first, then a sample of the others. The call rests on the fitted dose curve; in most records, active means well fitted inhibition curve with a large enough effect; inconclusive means small, poorly fitted or top-dose-only effect; inactive means flat fitted curve, though single readings scatter. Potencies beside an inconclusive call are fits to weak or partial responses and may not hold up.

Assay: Cytotoxic Profiling in HEK 293 Cell Line of Diverse Libraries Using Quantitative High-Throughput Screening; further: nearly all actives have a fitted effect of over 60% in size
Conditions: HEK 293 viability, ATP luminescence (CellTiter-Glo), 48-72 h; activity change, negative = cytotoxicity: at 115 µM (top of the series) unless noted; series mostly up to 115 µM
In short: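 250 HEK 293 cells/well; compound by pintool; incubated 48 or 72 hr at 37 degree Celsius; CellTiter-Glo added, 10 min RT, luminescence imaged.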
On the % scale 0 is the no-effect control and ±100 the full control effect; potency means the concentration at half of the fitted maximal effect; tags describe the fitted curve by direction and shape.

Compound | activity change, negative = cytotoxicity | Potency | outcome
CNC(=O)c1cc(C)nc2onc(C3CCCN(C(=O)Cc4ccccc4)C3)c12 (stereo not drawn) | inactive: -21.2% |  | 
COc1ccc(CNC(=O)[C@@H]2Cc3nc[nH]c3CN2Cc2ccc(Cl)cc2)cc1 |  | inconclusive: 112 µM [inhibitor, single point] | 
Cc1nc(N2CCN(C(=O)COc3ccc(F)cc3)CC2)cc(C(F)(F)F)n1 |  | inconclusive: 79.4 µM [inhibitor, single point] | 
CCN1C(=O)C2CC3(CCN(Cc4ccc(F)c(F)c4)CC3)CN2C1=O (stereo not drawn) |  | active: 31.6 µM | 
COc1ccc(CCNC(=O)CCc2nnc(-c3cccc(OC(C)C)c3)[nH]c2=O)cc1 |  | inconclusive: 89.1 µM [inhibitor, single point] | 
Cn1ccnc1-c1ccc(N2CCC(CO)(CCOc3ccccc3)CC2)nn1 |  | inconclusive: 39.8 µM [inhibitor, full curve, poor fit] | 
COCCNc1ncccc1-c1noc([C@@H]2CCCN2Cc2ccccn2)n1 |  | active: 22.4 µM | 
COCCOC(=O)C1=C(C)N=C2SC=C(CC(=O)NC3CC3)N2C1c1ccccc1C (stereo not drawn) | inactive: -17.9% |  | 
Cc1cccc(CNC(=O)c2nnn3cc(C)[nH]c(=O)c23)c1 | inactive: 7.21% |  | 
COc1ccccc1CNC(=O)C[C@@H]1[C@H](O)CCC2[C@](C)(CO)[C@H](OC(=O)NC3CCCCC3)CC[C@]21C (stereo partly drawn) |  | inconclusive: 79.4 µM [inhibitor, partial curve, poor fit] | 
O=C(NC1CCN(c2ccc3nnc(-c4ccccc4)n3n2)CC1)c1cccc(Cl)c1 | inactive: -26.4% |  | 
COc1ccc(-c2nc3c(c(=O)[nH]2)CCN(C(=O)c2ccc(OC)cc2OC)C3)cc1 |  | inconclusive: 39.8 µM [inhibitor, partial curve] | 
Cc1ccc(-c2cc(N3CCCN(C(=O)c4cccs4)CC3)n[nH]2)cc1C |  | inconclusive: 79.4 µM [inhibitor, partial curve, poor fit] | 
FC(F)(F)c1cccc(-c2cc(-c3ccncc3)c3cncn3c2)c1 |  | inconclusive: 63.1 µM [inhibitor, full curve, poor fit] | 
Cc1noc(C)c1S(=O)(=O)N1CCOC[C@H](Oc2ccc(C(F)(F)F)cc2)C1 |  | active: 63.1 µM | 
CCn1cc(S(=O)(=O)NCCc2ncc(C)n2Cc2ccc(F)cc2)cn1 | inactive: -6.32% |  | 
COc1cccc(C(=O)N2CCN(C(=O)c3cccc(-c4cccc(OC)c4)c3)CC2)c1 |  | inconclusive: 50.1 µM [inhibitor, partial curve, poor fit] | 
O=C(CN1C(=O)NC2(CCOCC2)C1=O)Nc1ccc2c(c1)OCCO2 | inactive: 1.85% |  | 
Fc1ccc(OC2CN(CC3CCCCC3)C2)cc1F |  | inconclusive: 70.8 µM [inhibitor, partial curve, poor fit] | 
Cn1ccc(NC(=O)[C@@H]2C[C@@H](c3ccc(F)cc3)N(CCOc3ccccc3)C2)n1 |  | inconclusive: 89.1 µM [inhibitor, partial curve, poor fit] | 
COc1ccccc1Nc1ccnc(N2CCC(C(=O)NCc3ccc4c(c3)OCO4)CC2)n1 |  | inconclusive: 56.2 µM [inhibitor, partial curve, poor fit] | 
CN1CC(=O)N(C2CCCC2)Cc2c(NCc3ccc(F)cc3)ncnc21 |  | inconclusive: 50.1 µM [inhibitor, partial curve, poor fit] | 
CO[C@H]1COCCN(C(=O)c2ccc(C#N)cc2)C1 | inactive: 2.05% [at 230 µM] |  | 

Compound | activity change, negative = cytotoxicity | Potency | outcome
O=C(NC1CCCCCC1)c1nc2sccn2c1-c1cccnc1 |  | inconclusive: 89.1 µM [inhibitor, single point] | 
Cn1cccc1CN1CCn2c(nnc2-c2ccccc2)C1 |  | inactive | 
COC[C@@H]1CN(C(=O)Cc2c[nH]c3ccccc23)C[C@H]1c1nc(C)no1 | inactive: 4.1% |  | 
CSCCNC(=O)c1coc(COc2cccc(C(F)(F)F)c2)n1 |  | inconclusive: 89.1 µM [inhibitor, single point] | 
O=C(Nc1ccc([C@H]2OCC(=O)N(CC3CCCCC3)[C@@H]2CO)cc1)c1ccccn1 |  | inconclusive: 44.7 µM [inhibitor, partial curve, poor fit] | 
Cc1sc2ncnc(N3CCCN(C(=O)c4ccoc4)CC3)c2c1C |  | inconclusive: 50.1 µM [inhibitor, partial curve, poor fit] | 
Cc1ccc(C(=O)N2CCCC2c2nc(CCOCC3CC3)no2)cn1 (stereo not drawn) |  |  | inactive
CC(c1ccccc1)N1CCN(c2cccc(CN(C)S(C)(=O)=O)c2)CC1 (stereo not drawn) |  | active: 44.7 µM | 
Cc1nc(-c2ccc(F)cc2)n(CC(=O)Nc2ccccc2)c(=O)c1CCO |  | active: 44.7 µM | 
COc1ccc(C2Cn3nnc(C(=O)N4CCN(C(=O)Cc5ccc(F)cc5)CC4)c3CO2)cc1 (stereo not drawn) |  | inconclusive: 8.91 µM [inhibitor, full curve, poor fit] | 
CCn1nccc1C(=O)N1CC(Oc2ccccc2-c2nc(CCOC)no2)C1 | inactive: 4.38% |  | 
c1ccc(CN2CC(CNc3cccnc3)C3(C2)CN(c2ccccc2)C3)cc1 (stereo not drawn) |  | inconclusive: 70.8 µM [inhibitor, partial curve, poor fit] | 
c1cnc2nc(-c3ccncc3)[nH]c2c1 |  | inactive | 
COCc1noc([C@@H]2CN(S(=O)(=O)Cc3ccc(F)cc3)C[C@H]2C(N)=O)n1 | inactive: -4.48% |  | 
CCCNC(=O)N(C1CCOCC1)C1CCN(S(=O)(=O)c2ccccc2CC)CC1 | inactive: -29.3% |  | 
COc1ccc(N2CCN(c3nc(C(=O)NCc4ccc(C)cc4)cs3)CC2)cc1 |  | active: 28.2 µM | 
O=C(COc1ccccc1)N[C@@H]1C[C@H](Cn2cc(C3CC3)nn2)[C@@H](O)[C@H]1O |  |  | inactive [at 172 µM]
Cc1nc(CN(C)C(=O)c2coc(COc3ccc(F)cc3Cl)n2)cs1 |  | inconclusive: 89.1 µM [inhibitor, single point] | 
O[C@H]1[C@H](NCc2ccc(Cl)cc2)[C@@H](c2ccc(N3CCOCC3)nc2)C[C@H]1O | inactive: -15.9% [at 172 µM] |  | 
Cc1ccc(S(=O)(=O)N2CCC(n3cnnc3C(C)C)CC2)cc1F |  | inconclusive: 39.8 µM [inhibitor, partial curve] | 
Cc1ccc([S+](=O)([O-])N2CCc3nc(C(C)C)nc(-c4ccc(O)cc4)c3C2)cc1 |  | inconclusive: 44.7 µM [inhibitor, partial curve, poor fit] | 
COc1ccccc1-n1c(=O)c(C(=O)N2CCOCC2)nc2cccnc21 | inactive: 4.35% |  | 
COc1ccccc1Nc1ccnc(N2CCC[C@H]2C(=O)NCCSC)n1 | inactive: -19.6% |  | 

Compound | activity change, negative = cytotoxicity | Potency | outcome
COC1CCC(C(=O)N2CCCn3nc(C)c(-c4ccccc4-c4ccccc4)c32)CC1 (stereo not drawn) |  | inconclusive: 100 µM [inhibitor, partial curve, poor fit] | 
O=C1CCN(C(=O)C2CCN(C(=O)C3CCOCC3)CC2)CCCCCCN1 | inactive: -1.07% |  | 
CN(C)[S+](=O)([O-])c1ccc2c(c1)OCCN(Cc1cccnc1)C2 |  | inconclusive: 70.8 µM [inhibitor, partial curve, poor fit] | 
CC(CCc1ccccc1)NC(=O)CN1C(=O)NC(c2ccccc2Cl)C2=C1COC2=O (stereo not drawn) |  | inconclusive: 56.2 µM [inhibitor, partial curve, poor fit] | 
COc1ccc(CN2CCN(c3nc(C)ccc3C#N)CC2CCO)cc1C (stereo not drawn) |  | active: 50.1 µM | 
Cc1ccc(CC(=O)N2CCN(C(=O)c3nnn4c3COC(c3ccccc3)C4)CC2)cc1 (stereo not drawn) | inactive: -24.5% |  | 
CCOC(=O)C1CCN(C(=O)c2cn3cc(-c4ccc(OC)cc4)sc3n2)CC1 |  | inconclusive: 79.4 µM [inhibitor, partial curve, poor fit] | 
Cc1ccc(C(=O)N2CCc3c(nc4cc(-c5ccccc5)[nH]n4c3=O)C2)cn1 | inactive: -0.596% |  | 
COc1cc(CNC(=O)c2cnc3c(c2)N(C(=O)Cc2ccc(C(C)C)cc2)CCC3)cc(OC)c1 |  | inconclusive: 56.2 µM [inhibitor, partial curve, poor fit] | 
CC(C(=O)NCc1nc2ccccc2n1C)C1CCOCC1 (stereo not drawn) | inactive: -5.34% |  | 
COc1cc(O)ccc1CN1CCn2nnc(CCC(=O)N3CCCC3)c2C1 | inactive: -3.52% |  | 
COc1ccc(-c2ccc(C(=O)N3CCCC(C)C3)c(Cl)c2)nn1 (stereo not drawn) |  | inconclusive: 70.8 µM [inhibitor, partial curve, poor fit] | 
Cc1cccc(CN2CCc3c(sc4ncnc(N(C)C)c34)C2)c1 |  | inconclusive: 89.1 µM [inhibitor, single point] | 
O=C(c1cc(F)ccc1Cl)N1CCC(Cc2nc(-c3ccccc3)no2)CC1 |  | active: 50.1 µM | 
COCCNC(=O)c1nc2c(o1)CCN(Cc1ccc(OC)cc1)CC2 |  | inconclusive: 126 µM [inhibitor, single point] | 
O=C(c1ccc2nccnc2c1)N1CCC2(CC1)Nc1ccccc1NC2=O |  | inconclusive: 89.1 µM [inhibitor, single point] | 
O=C(NCc1ccccc1)c1cnc2n1CCN(CC1CCCC1)CC2 |  | inconclusive: 56.2 µM [inhibitor, full curve, poor fit] | 
O=C(c1ccccc1F)N1CCC2(C1)C(=O)N(CCc1ccccc1)c1ccccc12 (stereo not drawn) |  | active: 25.1 µM and active: 39.8 µM | 
COC(=O)CNC(=O)c1cc(-c2cc(Cl)cc(Cl)c2)c2cccn2n1 |  | inconclusive: 8.91 µM [inhibitor, full curve, poor fit] | 
COc1ccc(-c2noc([C@@H]3Cc4nc[nH]c4CN3Cc3ccc(C)cc3)n2)cc1 |  | active: 89.1 µM | 
O=C(c1ccsc1)N1CCC2(CC1)NC(=O)N(Cc1ccc(Cl)cc1)C2=O |  | inconclusive: 44.7 µM [inhibitor, partial curve, poor fit] | 
O=C(NCC(=O)N1CCOCC1)c1cccc(-c2ccsc2)c1 |  | inconclusive: 28.2 µM [inhibitor, partial curve] | 
